These results are taken from PubChem BioAssay AID463173 (ICCB-Longwood Screening Facility, Harvard Medical School, 2010).

Each structure is given as a SMILES string. In all, about 52,000 compounds went through this assay and about 1,700 (3.3%) were called active. No stated cut-off is given here; in the data, active means survival mostly below about 52% (no sharp cut-off); inactive means mostly above about 56%. The list shows a part of the results.

In this test the test system is Wild type. The experiment in a line: growth inhibition of S. aureus wild type versus tarO mutant, primary screen, teichoic acid synthesis inhibitors, RN4220, OD600 (AID 463173). Conditions: S. aureus RN4220 wild type/DeltatarO growth, OD600, 18 h, stronger effect = lower value, screened at 18.75 µg/mL (by protocol).
As to `COc1ccccc1NC(=O)CC1COc2ccccc2O1` (stereo not given), the survival is inactive: 103%. For `O=C(Nc1ccc(F)c(Cl)c1)N1CC=C(c2c[nH]c3ccccc23)CC1`, the survival was inactive: 73%. Turning to `Cn1c(=O)oc2cc(S(=O)(=O)N3CCCC(C(=O)NCc4ccc(F)cc4)C3)ccc21` (stereo not given), the survival is inactive: 132%. For `CC(C)CCNC(=O)c1cc2cc(S(=O)(=O)N3CCCCC3)ccc2n1C`, the survival was inactive: 74%.

Regarding `O=C(O)CSC1=NC2CCCCC2N1` (stereo not given), the survival was inactive: 108%. For `O=C(NCCc1ccccc1Cl)c1sc2ncccc2c1-n1cccc1`, the survival is inactive: 148%. With `Cn1c2ccccc2c2nnc(SCC(N)=O)nc21`, the survival was inactive: 116%. `CCC(=O)N1c2ccccc2CC1C(=O)NCCc1ccccc1` (stereo not given): the survival was inactive: 66%.

On to `COc1cccc(Cn2nnc3c(=O)[nH]c(C4CCN(C(=O)c5ccccc5Cl)CC4)nc32)c1`, for which the survival was inactive: 14%. `CCC(=O)Nc1ccccc1-c1nc2ccccc2n(CC(=O)c2ccc(C)cc2)c1=O`: the survival is inactive: 84%. `CSc1ncc(Cl)c(C(=O)Nc2c(C(=O)Nc3cccc(Cl)c3)oc3ccccc23)n1`: the survival was inactive: 86%. Turning to `Cc1ccc(N2CCN(C(=O)c3cnc(N4CCCCC4)c4ccccc34)CC2)c(C)c1`, the survival is inactive: 82%.

On to `COc1ccc(CNC(=O)CCCN2C(=O)COc3ccc(C)cc32)cc1`, for which the survival is inactive: 122%. `O=C(NCc1ccccc1Br)c1cnc2sc(N3CCCCCC3)nn2c1=O`: the survival was inactive: 70%. With `CC1=C(C(N)=O)C(c2ccccc2Br)n2ncnc2N1` (stereo not given), the survival was inactive: 80%. To `COc1ccc(-n2nc(C(=O)N3CCCC(C)C3)c3c4ccccc4n(C)c3c2=O)cc1Cl` (stereo not given) belongs inactive: 77%; to `CCOC(=O)c1ccc(NC(=O)CSc2c3c(nc4cc(Cl)ccc24)CCCC3)cc1`, inactive: 79%. For the compound `COc1cc(OC)c(NC(=O)CCCn2nc(C)c3c(C)n(-c4ccccc4)nc3c2=O)cc1Cl`, the survival was active: 0%.

Consider `Cc1nn2c(C)c(C(=O)NCc3ccco3)cnc2c1-c1ccccc1`, for which the survival was inactive: 131%. As for `Cc1nn(C(=O)c2ccc(Cl)cc2)c(C)c1S(=O)(=O)N1CCCCCC1`, the survival is inactive: 87%. Regarding `CCN(CC)c1nc2ccccc2nc1C(=O)Nc1cc(OC)c(OC)c(OC)c1`, the survival is inactive: 126%.

Regarding `O=C(NC1CC(=O)N(c2ccccc2)C1)c1ccc(S(=O)(=O)N2CCCCC2)cc1` (stereo not given), the survival was active: -1%. For the compound `CCn1c(SCC(=O)NC2CCCC2)nnc1-c1ccccc1`, the survival is inactive: 98%. Regarding `Cc1ccc(N2CCn3c2nc2c3c(=O)n(CCCc3ccccc3)c(=O)n2C)cc1C`, the survival is inactive: 83%. With `COc1ccc(OCC(=O)NCC(c2ccc(OC)cc2)N2CCCCC2)cc1` (stereo not given), the survival is inactive: 87%.

As for `COc1ccc(C2C(C(=O)Nc3cccnc3)=C(C)Nc3nc(-c4ccccc4)nn32)cc1OC` (stereo not given), the survival was inactive: 67%. To `O=c1[nH]c(=O)n(C2CCCCC2)c(O)c1C1=Nc2ccccc2SC(c2ccccc2)C1` (stereo not given) belongs inactive: 105%. `Cc1cccc(OCC(=O)N(Cc2ccc(C(C)(C)C)cc2)Cc2ccco2)c1`: the survival is inactive: 78%. Take `COc1ccccc1NC(=O)C1=C(C)Nc2nc(SCc3ccccc3Cl)nn2C1c1ccccn1` (stereo not given): the survival was inactive: 142%.

Turning to `CN(C)c1ccc(/C=C/c2noc(-c3ccccc3O)n2)cc1`, the survival was inactive: 98%.

With `Cc1ccc(C(c2cccc(Br)c2)c2c(C)[nH]c3ccccc23)s1` (stereo not given), the survival was inactive: 109%. As for `COc1cc(OC)cc(C(=O)N2CCN(C(=O)COc3ccccc3)CC2)c1`, the survival is inactive: 64%.

`COCCn1c(SCC(=O)N2CCCCC2C)nc2sc(C)c(C)c2c1=O` (stereo not given): the survival was inactive: 103%. `CC(C)c1ccc(NC(=O)C(C)N(c2ccccc2)S(C)(=O)=O)cc1` (stereo not given): the survival was inactive: 86%. With `O=c1c2ccccc2n2c(-c3ccc(Cl)cc3)nnc2n1CCc1ccccc1` the figure was inactive: 84%; with `CSc1ccc(CCNS(=O)(=O)c2ccc3c(c2)C(C)(C)C(=O)N3C)cc1`, inactive: 71%.

With `COc1cc(OC)c(NC(=O)N2CC3CCCN3c3ccccc32)cc1Cl` (stereo not given), the survival is inactive: 89%. To `COCCCNc1nc(NCc2cccc(Cl)c2)c2cnn(C)c2n1` belongs inactive: 58%. With `COc1ccc(-c2nc(CSc3nnc(C)n4c3cc3occc34)c(C)o2)cc1OC` the figure was inactive: 95%; with `CCc1ccc(-n2nc(C)c3c(C)cc(=O)n(CC(=O)Nc4ccc(C(C)=O)cc4)c32)cc1`, inactive: 68%; with `CC(C)C(NS(=O)(=O)c1ccc2c(c1)oc(=O)n2C)C(=O)NCCc1ccccc1` (stereo not given), inactive: 90%.

In the case of `Cc1ccc(C)c(CN2C(=O)c3ccccc3S(=O)(=O)c3ccc(C(=O)NCCCN4CCCC(C)C4)cc32)c1` (stereo not given), the survival was inactive: 134%. To `O=C(Cn1ncc2c3ccccc3n(Cc3ccc(F)cc3)c2c1=O)NCCC1=CCCCC1` belongs inactive: 81%; to `O=S(=O)(NN=C1CCCCC1)c1ccccc1`, inactive: 106%; to `Cc1c(C(=O)Nc2ccc(C(C)C)cc2)sc2nc3n(c(=O)c12)CCC3`, inactive: 90%. For the compound `CCC(CC)c1nn2c(=O)cc(COc3ccc(NC(=O)c4ccc(C)cc4)cc3)nc2s1`, the survival was inactive: 86%. In the case of `Cc1nn(C(=O)c2ccc(Cl)cc2)c(C)c1S(=O)(=O)N1CCOCC1`, the survival was inactive: 119%.

Take `Cn1c(NN)nc2sc3c(c2c1=O)CCCC3`: the survival is inactive: 108%.

Turning to `Cc1ccc(CNc2ncnc3c2nnn3C)cc1`, the survival is inactive: 49%. Turning to `CC1CCC(NC(=O)CN2CCC(n3nnc4ccccc43)CC2)CC1` (stereo not given), the survival is inactive: 122%. Turning to `COc1ccc(NC(=O)CC2C(=O)N(c3cccc(C)c3)C(=O)N2Cc2cccnc2)cc1` (stereo not given), the survival is inactive: 78%.

Consider `Cc1cn2c(=O)cc(COC(=O)c3cccc(NC(=O)c4ccccc4Cl)c3)nc2s1`, for which the survival is inactive: 66%.

Turning to `CCc1ccc(CNC(=O)CN2C(=O)CSc3c2c(C)nn3-c2ccccc2)cc1`, the survival was inactive: 125%. For `Cc1ccc(C)c(NC(=O)Nc2csc3c2CCCC3)c1`, the survival was inactive: 81%. As to `COc1ccccc1NC(=O)Cn1c(=O)n(Cc2nc(-c3ccccc3)no2)c(=O)c2ccccc21`, the survival is inactive: 72%.

On to `COc1ccc2sc(N)nc2c1`, for which the survival was inactive: 115%.

Regarding `CCOc1ccc2nc(N3CCCC(C(=O)NCc4ccc(C)cc4)C3)sc2c1` (stereo not given), the survival was inactive: 82%. To `CC(C)NC(=O)C1CCN(C(=O)N2CC(C)Oc3ccccc32)CC1` (stereo not given) belongs inactive: 86%; to `CCC1=C(c2ccc(C)cc2)S(=O)(=O)N=C1N1CCC(C(=O)N2CCCCC2)CC1`, inactive: 69%.

For the compound `O=C(COCc1cc(-c2cccs2)on1)Nc1cccc(O)c1`, the survival was active: -3%. With `CCS(=O)(=O)NCCc1csc2nc(-c3ccc(C)cc3)nn12`, the survival is inactive: 59%. As for `Cc1ccc(-n2cnc3cc(C(=O)NC4CCCCCC4)ccc32)cc1Cl`, the survival was inactive: 129%. With `Cc1cccc(-n2c(-c3ccco3)nc3c(cnn3-c3ccc(F)cc3)c2=O)c1` the figure was inactive: 95%.

Regarding `COC(=O)c1c(C)sc(-c2c(-c3ccc4c(c3)OCCO4)[nH]c3c2c(=O)[nH]c(=O)n3C)c1O`, the survival was inactive: 72%. To `COc1ccc(-c2nn(C)c3sc(C(=O)N4CCN(c5cccc(Cl)c5)CC4)cc23)cc1OC` belongs inactive: 59%. Turning to `CC1CCc2c(sc(NC(=O)c3cc(-c4ccc(Br)cc4)on3)c2C(N)=O)C1` (stereo not given), the survival was inactive: 143%. As for `O=C(O)Cn1nnnc1SCC(=O)Nc1ccc(F)cc1F`, the survival was inactive: 108%. Consider `CCNc1nc(NC(C)(C)C)nc(N2CCCCC2)n1`, for which the survival is inactive: 98%. Regarding `COc1ccc(NC(=O)C2CCN(S(=O)(=O)c3c(C)noc3/C=C/c3ccc(C)cc3)CC2)cc1Cl`, the survival is inactive: 84%.

For `Cc1c(CNCCCc2ccccc2)c(C(=O)O)c(C)n1Cc1cccc(Cl)c1`, the survival was inactive: 99%.

For the compound `Cc1ccc(OCc2cc(=O)n3cc(C)sc3n2)c(C)c1`, the survival was inactive: 57%. As to `Cc1ccc(NS(=O)(=O)c2ccc3[nH]c4c(c3c2)CCCCC4)cc1`, the survival was inactive: 84%. Take `COc1ccc(S(=O)(=O)c2cn(C)c3cc(N4CCOCC4)c(F)cc3c2=O)cc1`: the survival is inactive: 72%. `COC(=O)CC1Oc2ccc(Cl)cc2-n2cc(-c3ccc(F)cc3)nc21` (stereo not given): the survival is inactive: 96%. For the compound `O=C(COc1ccccc1)Nc1c(Cl)ccc2nsnc12`, the survival is inactive: 70%.

`CC(=O)N1CCc2cc(S(=O)(=O)N3CCN(c4ccc(C)cc4)C(C)C3)ccc21` (stereo not given): the survival is inactive: 90%. With `CCc1ccc(OCC(=O)Nc2ccc(Cl)c(-c3nc4ncccc4o3)c2)cc1` the figure was inactive: 59%. To `CCc1ccc(OCC(=O)Nc2ccc3oc(-c4ccc(OC)cc4)nc3c2)cc1` belongs inactive: 79%; to `Cc1ccc(C)c(N(C)S(=O)(=O)c2ccc3[nH]cc(C(=O)NC4CCCC4)c(=O)c3c2)c1`, inactive: 68%. On to `CCOc1ccc(S(=O)(=O)NCC(c2cccs2)S(=O)(=O)c2ccc(C)cc2)cc1` (stereo not given), for which the survival was inactive: 94%. With `O=C1OCc2cc(-n3[nH]nnc3=S)ccc21`, the survival is inactive: 109%. Consider `CCN1CCN(C(=O)c2c(C)nn(-c3ccc(F)cc3)c2-n2cccc2)CC1`, for which the survival is inactive: 85%.

On to `CC(C)(C)NC(=O)CCSc1nc(-c2ccc3c(c2)OCO3)cc(C(F)(F)F)n1`, for which the survival was active: 4%. With `CCC(C(=O)NCCc1cc(OC)ccc1OC)n1nc(C)c2sc3ccccc3c2c1=O` (stereo not given) the figure was inactive: 80%. As for `Cc1cc(-c2nc3ncccc3o2)ccc1NC(=O)COc1cc(C)c(Cl)c(C)c1`, the survival is inactive: 80%. For the compound `CN(Cc1ccccc1)c1ccc(-c2nc(-c3cccnc3)no2)cc1[N+](=O)[O-]`, the survival is inactive: 84%. As for `CCN(Cc1ccccc1)S(=O)(=O)c1ccc2[nH]c3c(c2c1)CCCCC3`, the survival was inactive: 70%.

Take `Cc1c(C(=O)OCCOc2ccccc2)[nH]c2c1C(=O)CC(c1ccccc1Cl)C2` (stereo not given): the survival was inactive: 83%. With `CCOC(=O)c1cccc(NC(=O)c2nn(-c3ccc(OC)cc3)c(=O)c3c2c2ccccc2n3C)c1`, the survival was inactive: 78%. For `CCOC(=O)c1cnc2nc(NCc3ccc(OCC)cc3)[nH]n2c1=O`, the survival is inactive: 92%.
